Results as given in patent publication US20130123253A1, “MODULATORS OF CENTRAL NERVOUS SYSTEM NEUROTRANSMITTERS” (HUMAN BIOMOLECULAR RESEARCH INSTITUTE, priority 2004, published 2013).
Read-outs that look alike come from different tables or passages of the source.

Key:
[1] = target: T1, human dopamine transporter (hDAT) (Homo sapiens, UniProt Q01959); assay: cell-based
[2] = target: T2, human norepinephrine transporter (hNET) (Homo sapiens, UniProt P23975); assay: cell-based
[3] = target: T1, human dopamine transporter (hDAT); assay: Inhibition of [125I]RTI-55 binding in HEK-hDAT cell membranes; set-up: expressed in transfected cells
[4] = target: T2, human norepinephrine transporter (hNET); assay: Inhibition of radioligand binding in HEK-hNET cell membranes; set-up: expressed in transfected cells
[5] = Table 2, read-out: Binding (ki, nM) hDAT
[6] = Table 2, read-out: Binding (ki, nM) hNET
[7] = Reuptake (Kr, nM) hDAT, Table 1
[8] = Table 1, read-out: Binding (Ki, nM) hDAT
[9] = Table 17, mean ± S.E.M., read-out: Binding (Ki, nM) hDAT
[10] = Table 6, read-out: Binding (Ki, nM) hDAT
[11] = Table 6, read-out: Binding (Ki, nM) hNET
[12] = Reuptake (Kr, nM) hNET, Table 1
[13] = Table 1, read-out: Binding (Ki, nM) hNET
[14] = read-out: Binding (Ki, nM) hDAT
[15] = read-out: Binding (Ki, nM) hNET

T2 sequence (P23975 whole entry): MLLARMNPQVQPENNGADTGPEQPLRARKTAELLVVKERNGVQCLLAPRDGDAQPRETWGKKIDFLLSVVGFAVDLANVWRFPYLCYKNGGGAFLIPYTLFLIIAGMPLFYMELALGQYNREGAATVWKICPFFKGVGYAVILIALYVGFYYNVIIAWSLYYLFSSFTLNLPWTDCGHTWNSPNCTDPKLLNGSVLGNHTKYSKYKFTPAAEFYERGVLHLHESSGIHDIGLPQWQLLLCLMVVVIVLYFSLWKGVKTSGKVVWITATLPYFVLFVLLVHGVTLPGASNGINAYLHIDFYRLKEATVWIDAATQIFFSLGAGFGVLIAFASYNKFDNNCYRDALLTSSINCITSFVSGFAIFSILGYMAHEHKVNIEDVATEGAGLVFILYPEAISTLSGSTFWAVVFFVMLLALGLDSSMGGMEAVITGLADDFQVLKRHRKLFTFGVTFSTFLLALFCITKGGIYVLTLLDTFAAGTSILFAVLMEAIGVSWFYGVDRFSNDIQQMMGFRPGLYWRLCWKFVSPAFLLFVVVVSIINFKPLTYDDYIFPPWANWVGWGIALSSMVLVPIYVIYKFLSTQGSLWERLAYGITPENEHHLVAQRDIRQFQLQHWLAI
T1 sequence (Q01959 whole entry): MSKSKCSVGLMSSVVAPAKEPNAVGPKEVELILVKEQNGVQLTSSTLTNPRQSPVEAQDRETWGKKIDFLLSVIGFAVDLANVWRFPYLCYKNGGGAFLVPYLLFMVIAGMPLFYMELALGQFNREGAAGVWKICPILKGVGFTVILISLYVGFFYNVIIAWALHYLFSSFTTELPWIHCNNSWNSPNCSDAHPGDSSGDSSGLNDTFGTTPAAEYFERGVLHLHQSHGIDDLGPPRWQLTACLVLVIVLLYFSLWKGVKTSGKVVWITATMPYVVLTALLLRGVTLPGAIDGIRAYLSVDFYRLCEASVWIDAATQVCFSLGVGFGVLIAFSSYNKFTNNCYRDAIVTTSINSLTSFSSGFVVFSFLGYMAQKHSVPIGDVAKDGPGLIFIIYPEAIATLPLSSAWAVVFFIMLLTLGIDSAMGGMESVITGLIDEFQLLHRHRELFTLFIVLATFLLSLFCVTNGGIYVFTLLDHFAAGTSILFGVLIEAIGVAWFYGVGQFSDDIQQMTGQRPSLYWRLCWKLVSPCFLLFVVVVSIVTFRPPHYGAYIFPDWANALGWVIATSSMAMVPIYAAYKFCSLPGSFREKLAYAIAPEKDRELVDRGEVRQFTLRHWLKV

Compound: COc1ccc(C2=NNC(=O)C3CC=CCC23)cc1OC (racemic) [Compound 19, 4-(3,4-Dimethoxy-phenyl)-4a,5,8,8a-tetrahydro-2H-phthalazin-1-one, reference compound]
- IC50 [1]: > 100000 nM
- IC50 ([2]; Reuptake (IC50) hNET): > 100000 nM
- Ki ([3]; Binding (Ki) hDAT): > 100000 nM
- Ki ([4]; Binding (Ki) hNET): > 100000 nM

Compound: COc1ccc(C2=NNC(=O)[C@@H]3CC=CC[C@H]23)cc1OC (racemic) [Compound 19, 4-(3,4-Dimethoxy-phenyl)-4a,5,8,8a-tetrahydro-2H-phthalazin-1-one, reference compound]
- IC50 [1]: > 100000 nM
- IC50 ([2]; Reuptake (IC50, nM) hNET): > 100000 nM
- Ki ([3]; Binding (Ki, nM) hDAT): > 100000 nM
- Ki ([4]; Binding (Ki, nM) hNET): > 100000 nM

Compound: COc1ccc(F)cc1CC[C@H]1CC[C@H](CN)O1 (relative stereo) [Compound 18i, Trans-2-(aminomethyl)-5-(2′-methoxy-5′-fluorophenethyl)tetrahydrofuran]
- IC50 [1]: 8560 nM

Compound: COc1ccc(F)cc1CC[C@@H]1CC[C@H](CN)O1 (relative stereo) [Compound 18j, Cis-2-(aminomethyl)-5-(2′-methoxy-5′-fluorophenethyl)tetrahydrofuran]
- IC50 [1]: 34300 nM
- Ki ([3]; Binding (Ki, nM) hDAT): 30300 nM

Compound: COc1ccc(F)cc1[C@@H]1CC[C@@H](CCNCC[C@@H]2CC[C@@H](c3cc(F)ccc3OC)O2)O1 (relative stereo) [N,N-bis (trans-5′-(2″- methoxy-5″-fluoro-phenyl-2′-tetra-hydrofuryl)ethyl) Amine]
- Ki ([1]; Reuptake (kup, nM) hDAT, Table 2): 1390 nM
- Ki ([2]; Reuptake (kup, nM) hNET, Table 2): 2940 nM
- Ki [3, 5]: 1390 nM
- Ki [4, 6]: 2640 nM

Compound: COc1ccc(F)cc1[C@@H]1CC[C@H](CCN)O1 (relative stereo) [cis-2-(aminoethyl)-5-(2′-methoxy-5′-fluorophenyl) tetrahydrofuran]
- Ki [1, 7]: > 10000 nM
- Ki [3, 8]: > 10000 nM

Compound: COc1ccc(C2=NN(CCCCCNCCC(Oc3ccc(C(F)(F)F)cc3)c3ccccc3)C(=O)C3CC=CCC23)cc1OC (single isomer, unassigned) [23(S), 4-(3,4-Dimethoxy-phenyl)-2-{5-[3-phenyl-3-(4-trifluoromethyl-phenoxy)-propylamino]-pentyl}-4a,5,8,8a-tetrahydro-2H-phthalazin-1-one]
- IC50 ([2]; Reuptake (IC50) hNET): > 10000 nM
- Ki [3, 9]: 3130 ± 194 nM
- Ki ([4]; Binding (Ki, nM) hNET): 4150 ± 693 nM

Compound: COc1ccc(C2=NN(CCCCCNCCC(Oc3ccc(C(F)(F)F)cc3)c3ccccc3)C(=O)C3CC=CCC23)cc1OC (single isomer, unassigned) [24(R), 4-(3,4-Dimethoxy-phenyl)-2-{5-[3-phenyl-3-(4-trifluoromethyl-phenoxy)-propylamino]-pentyl}-4a,5,8,8a-tetrahydro-2H-phthalazin-1-one]
- IC50 ([1]; Reuptake (IC50, nM) hDAT, Table 17, mean ± S.E.M.): 6670 ± 1630 nM
- IC50 ([2]; Reuptake (IC50, nM) hNET): > 8280 nM
- Ki [3, 9]: 3300 ± 408 nM
- Ki ([4]; Binding (Ki, nM) hNET): 5830 ± 1750 nM

Compound: CN1CCC[C@H]1C=Cc1ccccc1 (stereo in doubt) [1-Methyl-2-Styrenyl Pyrrolidine]
- IC50 [1]: 1030 nM
- IC50 ([2]; Reuptake (IC50, nM) hNET, Table 6): 250 nM
- Ki [3, 10]: 3240 nM
- Ki [4, 11]: 2780 nM

Compound: C(=C[C@@H]1CCCN1)c1ccccc1 (stereo in doubt) [2-Styrenyl Pyrrolidine]
- IC50 ([1]; Reuptake (IC50, nM) hDAT, Table 6): 1270 nM
- IC50 [2]: 104 nM
- Ki [3, 10]: 4130 nM
- Ki [4, 11]: > 10000 nM

Compound: COc1ccc(F)cc1[C@H]1CC[C@H](CN)O1 (stereo in doubt) [Compound 18a, Trans-2-aminomethyl-5-(2′-methoxy-5′-fluorophenyl)tetrahydrofuran]
- IC50 [1]: > 10000 nM
- Ki ([3]; Binding (Ki, nM) hDAT): > 10000 nM

Compound: COc1ccc(F)cc1CCC1CCC(CCNCCCCCN2N=C(c3ccc(OC)c(OC)c3)C3CC=CC[C@H]3C2=O)O1 (stereo in doubt) [Compound 21, 4-(3,4-Dimethoxy-phenyl)-2-[5-(2-{5-[2-(5-fluoro-2-methoxy-phenyl)-ethyl]-thtrahydro-furan-2-yl}-ethylamino)-pentyl]-4,5,8,8a-tetrahydro-2H-phthalazin-1-one]
- IC50 ([1]; Reuptake (IC50, nM) hDAT, Table 3, mixtures of diastereomers): 5390 ± 1060 nM
- Ki ([3]; Table 3, mixtures of diastereomers, read-out: Binding (Ki, nM) hDAT): 872 ± 65 nM

Compound: COc1ccc(F)cc1[C@@H]1CC[C@@H](CCN)O1 (stereo in doubt) [trans-2-(aminoethyl)-5-(2′-methoxy-5′-fluorophenyl) tetrahydrofuran]
- Ki [1, 7]: > 10000 nM

Compound: COc1ccc(F)cc1[C@@H]1CC[C@@H](CN)O1 (stereo in doubt) [trans-2-(aminomethyl)-5-(2′-methoxy-5′-fluorophenyl) tetrahydrofuran]
- Ki [1, 7]: > 10000 nM
- Ki ([3]; Binding (Ki, nM) hDAT): > 10000 nM

Compound: NCC1CCC(CCC2CCCO2)O1 (stereo not drawn) [2-(amino-methyl)-5-(-2″- tetrahydrofuryl-2′-ethyl)tetra-hydrofuran.]
- Ki [1, 7]: > 10000 nM
- Ki [2, 12]: > 10000 nM
- Ki [3, 8]: 142000 nM
- Ki [4, 13]: 72100 nM

Compound: NCCC1CCC(CCc2ccc3ccccc3c2)O1 (stereo not drawn) [2-(aminoethyl)-5-(2′-naphthylethyl) tetrahydrofuran]
- Ki [1, 7]: 655 nM
- Ki [2, 12]: 665 nM
- Ki [3, 8]: 1490 nM
- Ki [4, 13]: 1610 nM

Compound: NCCC1CCC(CCc2cccnc2)O1 (stereo not drawn) [2-(aminoethyl)-5-(3′-pyridylethyl) tetrahydrofuran]
- Ki [1, 7]: > 10000 nM
- Ki [2, 12]: > 10000 nM
- Ki [3, 8]: > 10000 nM
- Ki [4, 13]: 5340 nM

Compound: Cc1cc(CCC2CCC(CCN)O2)ccc1F (stereo not drawn) [2-(aminoethyl)-5-(4′-fluoro-3′-methylphenethyl) tetrahydrofuran]
- Ki [1, 7]: 509 nM
- Ki [2, 12]: 374 nM
- Ki [3, 14]: 6380 nM
- Ki [4, 13]: 882 nM

Compound: NCCC1CCC(CCc2ccc(F)cc2)O1 (stereo not drawn) [2-(aminoethyl)-5-(4′-fluoro-phenethyl) tetrahydrofuran]
- Ki [1, 7]: 3280 nM
- Ki [2, 12]: > 10000 nM
- Ki [3, 8]: > 10000 nM
- Ki [4, 13]: > 10000 nM

Compound: NCCC1CCC(CCc2ccc(O)cc2)O1 (stereo not drawn) [2-(aminoethyl)-5-(4′-hydroxy-phenethyl) tetrahydrofuran]
- Ki [1, 7]: 2530 nM
- Ki ([2]; Reuptake (Kr, nM) hNET): 2130 nM
- Ki [3, 8]: 5500 nM
- Ki [4, 15]: 5950 nM

Compound: COc1ccc(CCC2CCC(CCN)O2)cc1 (stereo not drawn) [2-(aminoethyl)-5-(4′-methoxy-phenethyl) tetrahydrofuran]
- Ki [1, 7]: > 10000 nM
- Ki [2, 12]: > 10000 nM
- Ki [3, 8]: > 10000 nM
- Ki [4, 13]: 6010 nM

Compound: Cc1ccc(CCC2CCC(CCN)O2)cc1 (stereo not drawn) [2-(aminoethyl)-5-(4′-methylphenethyl) tetrahydrofuran]
- Ki [1, 7]: > 10000 nM
- Ki [2, 12]: 919 nM
- Ki [3, 8]: 7610 nM
- Ki [4, 13]: > 10000 nM

Compound: COc1ccc(F)cc1C1CCC(CN)O1 (stereo not drawn) [2-(aminomethyl)-5-(2′-methoxy-5′-fluorophenyl) tetrahydrofuran]
- Ki [1, 7]: > 10000 nM

Compound: NCC1CCC(c2ccc3ccccc3c2)O1 (stereo not drawn) [2-(aminomethyl)-5-(2′-naphthyl) tetrahydrofuran]
- Ki [1, 7]: 28 nM
- Ki [2, 12]: 58 nM
- Ki [3, 8]: 512 nM

Compound: NCC1CCC(CCCc2ccccc2)O1 (stereo not drawn) [2-(aminomethyl)-5-(3′-phenyl-propyl) tetrahydrofuran]
- Ki [1, 7]: 1880 nM
- Ki [3, 8]: 1300 nM
- Ki [4, 13]: 576 nM

Compound: NCC1CCC(CCc2cccnc2)O1 (stereo not drawn) [2-(aminomethyl)-5-(3′-pyridylethyl) tetrahydrofuran]
- Ki [2, 12]: > 10000 nM
- Ki [4, 13]: 8520 nM

Compound: NCC1CCC(c2ccc(Br)cc2)O1 (stereo not drawn) [2-(aminomethyl)-5-(4′-bromophenyl) tetrahydrofuran]
- Ki [1, 7]: 167 nM
- Ki [2, 12]: 60 nM
- Ki [3, 8]: 6120 nM

Compound: COc1ccc(CCC2CCC(CN)O2)c2ccccc12 (stereo not drawn) [2-(aminomethyl)-5-(4′-methoxy-1′-naphthylethyl) tetrahydrofuran]
- Ki [1, 7]: 2110 nM
- Ki [2, 12]: 2120 nM

Compound: COc1ccc(C2CCC(CN)O2)cc1 (stereo not drawn) [2-(aminomethyl)-5-(4′-methoxy-phenyl)tetra-hydrofuran]
- Ki [1, 7]: 668 nM
- Ki [2, 12]: 92 nM
- Ki [4, 13]: 2010 nM

Compound: CC(C)(C)c1ccc(C2CCC(CN)O2)cc1 (stereo not drawn) [2-(aminomethyl)-5-(4′-t-butylphenyl) tetrahydrofuran]
- Ki [1, 7]: 4300 nM
- Ki [2, 12]: 2320 nM
- Ki [4, 13]: 4540 nM

Compound: NCC1CCC(CCc2c(F)c(F)c(F)c(F)c2F)O1 (stereo not drawn) [2-(aminomethyl)-5-(pentafluoro-phenethyl) tetrahydrofuran]
- Ki [1, 7]: 4590 nM

Compound: NCC1CCC(CCc2ccccc2)O1 (stereo not drawn) [2-(aminomethyl)-5-(phenethyl) tetrahydrofuran]
- Ki [1, 7]: 867 nM
- Ki [3, 8]: 1500 nM
- Ki [4, 13]: 2740 nM

Compound: NCC1CCC(Cc2ccccc2)O1 (stereo not drawn) [2-(aminomethyl)-5-benzyl tetrahydrofuran]
- Ki [1, 7]: 876 nM
- Ki [3, 8]: 1760 nM
- Ki [4, 13]: 1910 nM

Compound: NCC1CCC(c2ccccc2)O1 (stereo not drawn) [2-(aminomethyl)-5-phenyltetra-hydrofuran]
- Ki [1, 7]: 147 nM
- Ki [3, 14]: 916 nM
- Ki [4, 15]: 2770 nM

Compound: COc1ccc(F)cc1CCCC1CCC(CCN)O1 (stereo not drawn) [2-aminoethyl-5-((2″-methoxy-5″- fluorophenyl)-3′-propyl)tetra-hydrofuran]
- Ki [1, 7]: 17000 nM

Compound: COc1ccc(F)cc1CCC1CCC(CN)O1 (stereo not drawn) [2-aminomethyl-5-(2′-methoxy-5′-fluorophenethyltetrahydrofuran]
- Ki [1, 7]: 887 nM
- Ki ([3]; Binding (Ki, nM) hDAT): > 10000 nM

Compound: CNCCC1CCC(CCc2cc(F)ccc2OC)O1 (stereo not drawn) [Compound 24, (2-{5-[2-(5-Fluoro-2-methoxy-phenyl)-ethyl]-tetrahydro-furan-2-yl}-ethyl)-methyl-amine]
- IC50 [1]: > 10000 nM
- Ki ([3]; Binding (Ki, nM) hDAT): > 10000 nM

Compound: COc1ccc(F)cc1C[C@H]1CC[C@@H](CCNCC[C@H]2CC[C@@H](Cc3cc(F)ccc3OC)O2)O1 [N,N-bis(cis-5′-(2″- methoxy-5″-fluoro-benzyl-2′-tetrahydro-furyl)-2-ethyl) amine]
- Ki [3, 5]: 1440 nM
- Ki [4, 6]: 682 nM
